Experimental data: the BET-seq Pho4 binding data (Le et al. 2018)
This is one part of the list. Values were computed here from the reads of four pooled replicates and scatter widely.

What follows are sequences tested against T1, Pho4 (S. cerevisiae) (UniProt P07270) (assay: relative binding free energy (BET-seq); higher = weaker binding). Details: reference: library average.
T1 sequence: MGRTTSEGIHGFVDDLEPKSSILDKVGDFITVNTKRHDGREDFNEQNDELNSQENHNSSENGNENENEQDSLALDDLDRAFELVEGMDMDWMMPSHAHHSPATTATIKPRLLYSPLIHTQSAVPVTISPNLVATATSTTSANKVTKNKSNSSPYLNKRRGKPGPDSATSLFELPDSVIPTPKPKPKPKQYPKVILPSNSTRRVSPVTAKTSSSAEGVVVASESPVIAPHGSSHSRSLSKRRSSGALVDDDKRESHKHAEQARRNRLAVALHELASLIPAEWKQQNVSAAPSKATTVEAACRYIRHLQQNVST

Row | Sequence | relative binding free energy
1 | TGAAGCACGTGTTGTC | -0.05 kcal/mol
2 | GATGCCACGTGGGGTT | -0.1 kcal/mol
3 | TTATACACGTGTTCTG | -0.24 kcal/mol
4 | GGGATCACGTGTTGGC | 0.26 kcal/mol
5 | ATGATCACGTGTGCGT | -0.04 kcal/mol
6 | GGGATCACGTGATTTG | 0.49 kcal/mol
7 | GGTTGCACGTGGCAAT | -0.08 kcal/mol
8 | ACCTGCACGTGGGGGG | -0.03 kcal/mol
9 | AGGTGCACGTGTTGAT | -0.06 kcal/mol
10 | GGTTCCACGTGTATAT | 0.11 kcal/mol
11 | ATTGTCACGTGGGACA | -0.2 kcal/mol
12 | TTCTTCACGTGCGATG | 0.24 kcal/mol
13 | CTTCTCACGTGTTAGG | 0.24 kcal/mol
14 | GAAAGCACGTGAGTCG | 0.34 kcal/mol
15 | TGACGCACGTGATTGG | -0.09 kcal/mol
16 | CGGTACACGTGTTGTT | 0.24 kcal/mol
17 | TTTGTCACGTGCGCGG | 0 kcal/mol
18 | GTAATCACGTGAGCGT | 0.32 kcal/mol
19 | GTAGTCACGTGTTGGC | 0.22 kcal/mol
20 | TGAGTCACGTGTAATT | 0.13 kcal/mol
21 | AAAGTCACGTGGGTCG | 0.1 kcal/mol
22 | GTAGGCACGTGTTATA | -0.04 kcal/mol
23 | GATGGCACGTGGAAGT | 0.03 kcal/mol

Row | Sequence | relative binding free energy
24 | ATAGGCACGTGTTAAG | -0.08 kcal/mol
25 | ATTTGCACGTGTAGGC | 0.07 kcal/mol
26 | GTGGGCACGTGAGTCA | 0.1 kcal/mol
27 | TTAGTCACGTGCTGCT | 0.02 kcal/mol
28 | AAGATCACGTGAGGGT | 0.4 kcal/mol
29 | ATAAACACGTGTTAGG | 0 kcal/mol
30 | AAATGCACGTGTTTCT | 0.02 kcal/mol
31 | AGAGGCACGTGAAGGG | 0.02 kcal/mol
32 | TGGGGCACGTGACCGA | 0.06 kcal/mol
33 | TTTTACACGTGAGCGA | 0.23 kcal/mol
34 | TGCATCACGTGTTAAT | 0.17 kcal/mol
35 | TAGGGCACGTGACTGG | -0.05 kcal/mol
36 | AGTTTCACGTGTATTC | 0.22 kcal/mol
37 | TTACGCACGTGTAGGA | -0.1 kcal/mol
38 | ATTCACACGTGTGTTA | 0.19 kcal/mol
39 | TTAGACACGTGGGTTT | -0.07 kcal/mol
40 | CAGGTCACGTGTTGAT | 0.12 kcal/mol
41 | TTGGGCACGTGCATGC | -0.14 kcal/mol
42 | ATTGACACGTGGTGAA | -0.13 kcal/mol
43 | GGGGGCACGTGAGGGA | 0.18 kcal/mol
44 | GTGAACACGTGGTAAA | 0.14 kcal/mol
45 | GGTTGCACGTGGCGCA | -0.01 kcal/mol
46 | GCGGGCACGTGGGGTT | -0.19 kcal/mol

Row | Sequence | relative binding free energy
47 | GAGTGCACGTGATGGA | 0.17 kcal/mol
48 | AGGCGCACGTGAGGGG | 0.13 kcal/mol
49 | TCGCTCACGTGTTTGT | 0.24 kcal/mol
50 | ATGTGCACGTGCGATA | -0.04 kcal/mol
51 | CGGGTCACGTGAAATT | 0.48 kcal/mol
52 | CTTGGCACGTGGAATT | 0.15 kcal/mol
53 | TCGGACACGTGGCGGG | -0.15 kcal/mol
54 | TTTCCCACGTGTATGG | 0.15 kcal/mol
55 | TGGAGCACGTGCTTAT | -0.16 kcal/mol
56 | GAGTTCACGTGGATAT | 0.42 kcal/mol
57 | CGAGTCACGTGAAGGA | 0.54 kcal/mol
58 | ATGAGCACGTGCGAGG | -0.19 kcal/mol
59 | TAAATCACGTGTACGT | 0.29 kcal/mol
60 | GGTTTCACGTGGTGCG | 0.27 kcal/mol
61 | GGTGGCACGTGGCCGA | -0.26 kcal/mol
62 | GTGTCCACGTGCGGGG | -0.02 kcal/mol
63 | GTCGGCACGTGTTGTG | -0.05 kcal/mol
64 | GGAGTCACGTGTGTGT | 0.18 kcal/mol
65 | TATTGCACGTGCTGGG | -0.05 kcal/mol
66 | TAGGGCACGTGGTAAT | -0.07 kcal/mol
67 | GGTAACACGTGGGTCA | -0.16 kcal/mol
68 | GCGGTCACGTGGGGAT | 0.13 kcal/mol
69 | TTTATCACGTGGTAGT | 0.18 kcal/mol

Row | Sequence | relative binding free energy
70 | TGCTACACGTGGGGCT | 0.01 kcal/mol
71 | AGGCTCACGTGGAGTT | 0.21 kcal/mol
72 | GATCGCACGTGTTAGT | 0.08 kcal/mol
73 | GAGTTCACGTGTAAAG | 0.38 kcal/mol
74 | ACTTTCACGTGATGGG | 0.29 kcal/mol
75 | AAGGGCACGTGGCGAA | -0.09 kcal/mol
76 | TAAGGCACGTGAGATA | 0.09 kcal/mol
77 | CGTAGCACGTGGATAG | -0.03 kcal/mol
78 | ACGTCCACGTGTTTGT | 0.03 kcal/mol
79 | ATAAGCACGTGGAATT | 0.07 kcal/mol
80 | TTGAGCACGTGGTGTG | -0.18 kcal/mol
81 | TGCGGCACGTGGGGGG | -0.23 kcal/mol
82 | TGGAACACGTGGCATG | -0.06 kcal/mol
83 | GGTGGCACGTGGGAGG | -0.12 kcal/mol
84 | TTCATCACGTGGTGCA | 0.1 kcal/mol
85 | GGGCGCACGTGGGCGT | -0.22 kcal/mol
86 | CGATGCACGTGGGCGT | -0.12 kcal/mol
87 | TAGGGCACGTGTGTGG | 0 kcal/mol
88 | GATGGCACGTGCGTGG | -0.14 kcal/mol
89 | AGGATCACGTGAGTGG | 0.38 kcal/mol
90 | AGCTACACGTGTAGGG | 0.14 kcal/mol
91 | AAGGGCACGTGTGGCT | -0.05 kcal/mol
92 | AGGTACACGTGTGATT | 0.19 kcal/mol

Row | Sequence | relative binding free energy
93 | ATGTACACGTGGCGTA | -0.09 kcal/mol
94 | TCTGTCACGTGTCGGT | 0.02 kcal/mol
95 | GTTTGCACGTGGTGGA | 0.02 kcal/mol
96 | TGGATCACGTGGTTCT | 0.26 kcal/mol
97 | TAGAGCACGTGGTAGG | -0.21 kcal/mol
98 | TAATGCACGTGTTGCG | -0.05 kcal/mol
99 | TTTTTCACGTGTCGTG | 0.27 kcal/mol
100 | CTGTGCACGTGGTGGT | -0.11 kcal/mol
101 | GAAATCACGTGCTGGT | 0.11 kcal/mol
102 | TGATTCACGTGTTGGC | 0.28 kcal/mol
103 | GTGGGCACGTGAGAAG | 0.18 kcal/mol
104 | ATTTGCACGTGGGTAG | -0.14 kcal/mol
105 | ATGTACACGTGGAGAT | 0.06 kcal/mol
106 | TTACTCACGTGGCTGG | 0.28 kcal/mol
107 | AGATTCACGTGTGGTC | 0.13 kcal/mol
108 | GCGGGCACGTGGCTGT | -0.13 kcal/mol
109 | GAGGTCACGTGGCTAG | 0.19 kcal/mol
110 | GTGTGCACGTGATATG | 0.06 kcal/mol
111 | TTGGACACGTGCGTGT | -0.08 kcal/mol
112 | ACTGACACGTGTTTTG | 0.14 kcal/mol
113 | GGGGTCACGTGCTCAG | 0.07 kcal/mol
114 | AGGGTCACGTGCGCAG | -0.04 kcal/mol
115 | CAGGGCACGTGTGGGC | -0.08 kcal/mol
